About 7,600 (2.4%) of roughly 320,000 compounds were called active. Inconclusive means that the source gave no clear call. Such entries were picked first, then a sample of the others. The call rests on the fitted dose curve; in most records, active means well fitted activation curve with a large enough effect; inconclusive means small, poorly fitted or top-dose-only effect; inactive means no such curve, though single readings can be large or run the other way. No potency is given beside an inconclusive call; the fits are too rough.
Assay: qHTS Assay for NPC1 Promoter Activators; further: nearly all actives have a fitted effect of over 60% in size;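 on activation: reporter is driven by a mutant NPC1 promoter; % of control where 0% means no effect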
Details: Huh7 NPC1 promoter luciferase reporter, 24 h; series mostly up to 9.22 µM; activation: at the top concentration
Procedure, shortened: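 In 1536-well qHTS, Huh7 cells harboring an NPC1 promoter–luciferase construct received compound for 24 h; activation was quantified by luminescence following luciferase reagent addition.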
Potency means the concentration at half of the fitted maximal effect; tags describe the fitted curve by direction and shape.

Row | SMILES | Potency | activation
1 | CCCCNC(=O)C1CC(c2cccc(F)c2)=NO1 (configuration not stated) | inconclusive [activator, single point] | –
2 | O=C(Nc1cccc(F)c1)Nc1ccc2c(c1)OCO2 | active: 2240 nM | –
3 | Cc1csc(SCC(=O)c2cc(C)n(Cc3cccs3)c2C)n1 | inconclusive [activator, full curve] | –
4 | CC(C)C(=O)Nc1ccc2c(c1)oc1ccccc12 | active: 3550 nM | –
5 | O=C(Nc1cc(-c2ccccc2)[nH]n1)c1ccccc1 | active: 562 nM | –
6 | CNc1nnc(CSc2nc3ccccc3s2)s1 | – | inactive: 24.4%
7 | CNc1nc(-c2ccccc2)cc(C)c1S(C)(=O)=O | – | inactive: -2%
8 | CC(=O)Nc1ccc(-c2cn3cccnc3n2)cc1 | inconclusive [activator, single point] | –
9 | Cn1c(-c2ccc(N)cc2)nc2ccccc21 | inconclusive [activator, single point] | –
10 | CCOc1cc(/C=C2\C(=O)ON=C2c2ccccc2)cc(Br)c1O | – | inactive: -11.7%
11 | COc1ccc(NC(=O)Cn2nc(C)c([N+](=O)[O-])c2C)cn1 | – | inactive: -9.75%
12 | COc1ccc2oc3ccc(OC)cc3c(=O)c2c1 | active: 3160 nM | –
13 | Cn1cnc2cc(NC(=O)c3ccco3)ccc21 | active: 2820 nM | –
14 | N#C/C(=C\c1ccc(-c2ccc(C(=O)O)cc2)o1)C(=O)NCC1CCCO1 (configuration not stated) | inconclusive [activator, single point] | –
15 | CCOC(=O)c1c(C)[nH]c(N=Nc2cccc(OC)c2)c1C | active: 1780 nM | –
16 | O=C(Nc1ccc(Cl)c(Cl)c1)Nc1ccccn1 | active: 3160 nM | –
17 | C/C(=N\Nc1nc2c(s1)CCCC2)c1ccccc1 | inconclusive [activator, single point] | –
18 | CCOc1cc2c(C#N)c(N3CCCCC3)nc(N)c2c(N)n1 | – | inactive: 0.948%
19 | Cc1cc(C)nc(NC(=O)c2ccc(Br)s2)n1 | – | inactive: -0.56%
20 | O=C(NCc1ccco1)c1cc(-c2ccc3c(c2)OCO3)on1 | active: 2510 nM | –
21 | O=C(Nc1ccc2c(c1)CCC2)Nc1ccc(F)cc1F | active: 1260 nM | –
22 | Cc1ccc(NC(=O)NCc2c(C)nn(C)c2C)cc1Cl | inconclusive [activator, partial curve] | –
23 | COc1ccc(Nc2nc(-c3cccs3)cs2)c(OC)c1 | inconclusive [activator, single point] | –
24 | Cc1cc(C)c2c(CN3CCC(C)CC3)cc(=O)oc2c1 | inconclusive [activator, partial curve] | –
25 | CCOc1ccc(N=C2NC(=O)S/C2=C\c2ccc(N(C)C)cc2)cc1 | active: 4470 nM | –
26 | CN(C)c1nc(N)nc(CSc2nc3cc(Cl)ccc3o2)n1 | inconclusive [activator, partial curve] | –

Row | SMILES | Potency | activation
27 | N/C(=N\OC(=O)COc1ccccc1Cl)c1ccccn1 | active: 3160 nM | –
28 | O=[N+]([O-])c1ccc(-c2cn(-c3ccccc3F)c(=S)[nH]2)cc1 | inconclusive [activator, partial curve] | –
29 | O=C(O)c1ccc(N/N=C/c2ccc(-c3ccccc3)cc2)cc1 | inconclusive [activator, full curve] | –
30 | N#CC(=C1CCCC1)c1nc(-c2ccccc2)cs1 | active: 3160 nM | –
31 | CCOc1ccc(OCc2ccc(C(=O)OCc3ccccn3)o2)cc1 | inconclusive [activator, partial curve] | –
32 | CNC(=O)Nc1ccccc1C(=O)NCc1ccccc1 | – | inactive: 0.543%
33 | CCOc1ccc(C(=O)Nc2ccc3c(c2)OCCO3)cc1OC | inconclusive [activator, partial curve] | –
34 | CC(C)(C)n1ncc2c(=O)n(CC(=O)NC3CCCCC3)cnc21 | inconclusive [activator, partial curve] | –
35 | CCOc1ccc(C2=Nc3ccccc3C(c3ccc(N4CCOCC4)cc3)=NN2)cc1 | inconclusive [activator, full curve] | –
36 | CCC(=O)Nc1nc2cc(OC)ccc2s1 | active: 2240 nM | –
37 | CNC(=S)Nc1cccc(S(=O)(=O)NC2=NCCC2)c1 | – | inactive: -1.08%
38 | COc1ccc(NC(=O)ON=C2c3ccccc3-c3ccccc32)cc1 | inconclusive [activator, partial curve] | –
39 | O=c1c2cn[nH]c2[nH]c(=S)n1-c1ccccc1F | active: 2820 nM | –
40 | O=C(/C=C/c1ccc(F)cc1)NC(=S)Nc1ccccc1O | inconclusive [activator, single point] | –
41 | CCCC(C)NC(=O)c1ccc(-c2ccccc2)cc1 (configuration not stated) | inconclusive [activator, single point] | –
42 | O=C(NC1=NCCS1)c1cccc(OC(F)F)c1 | active: 2240 nM | –
43 | Cc1ccc(C(=O)Nc2ccc3cn[nH]c3c2)cc1S(=O)(=O)N1CCCCC1 | inconclusive [activator, partial curve] | –
44 | Cc1ccc(OCC(=O)Nc2ccc(S(=O)(=O)N3CCOCC3)cc2)c(Br)c1 | – | inactive: -0.365%
45 | O=C(N/N=C/c1ccco1)c1cc(C2CC2)[nH]n1 | inconclusive [activator, partial curve] | –
46 | CCC(=O)N1CCN(c2nc3ccc(Br)cc3s2)CC1 | inconclusive [activator, partial curve] | –
47 | Cc1ccnc(NC(=O)CCCNC(=O)c2ccc(Cl)cc2)c1 | inconclusive [activator, partial curve] | –
48 | COc1ccc2nc(NC(=O)CSC3=NCCS3)sc2c1 | inconclusive [activator, single point] | –
49 | Cc1ccc2nc(-c3cccnc3SCC(=O)N3c4ccccc4CC3C)[nH]c2c1 (configuration not stated) | inconclusive [activator, single point] | –
50 | Cc1ccccc1OCC1Cc2c(nc(N)c(C#N)c2N)O1 (configuration not stated) | inconclusive [activator, single point] | –
51 | CCOC(=O)Cn1nc(NC(=O)c2ccc(C(=O)OC)cc2)cc1C | inconclusive [activator, partial curve] | –
52 | CCOc1c2ccc(C(=O)NCCc3cccs3)cc2nn1CC | inconclusive [activator, single point] | –
